From PubChem BioAssay AID720709 (National Center for Advancing Translational Sciences (NCATS), 2013)
The campaign covered roughly 360,000 compounds. About 520 (0.14%) were called active. This list was built around the results that the source calls inconclusive (neither active nor inactive); the mix of calls is not that of the screen. Calls come from the whole dose curve; as a rule, active = well fitted inhibition curve with a large enough effect; inconclusive = small, poorly fitted or top-dose-only effect; inactive = no such curve, though single readings can be large or run the other way. No potency is given beside an inconclusive call; the fits are too rough.

biological target: Rap guanine nucleotide exchange factor 3 (Homo sapiens) (UniProt O95398); experiment: qHTS for Antagonist of cAMP-regulated guanine nucleotide exchange factor 3 (EPAC1): primary screen; details: EPAC1 GEF assay, Rap1b-BODIPY-GDP exchange fluorescence; activity change, negative = inhibition: at 115 µM (top of the series); note: nearly all actives have a fitted effect of over 50% in size;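 for activity change, negative = inhibition: plate controls were vehicle for no effect and positive control for full effect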
Chain of UniProt O95398 (O95398 whole entry, looked up): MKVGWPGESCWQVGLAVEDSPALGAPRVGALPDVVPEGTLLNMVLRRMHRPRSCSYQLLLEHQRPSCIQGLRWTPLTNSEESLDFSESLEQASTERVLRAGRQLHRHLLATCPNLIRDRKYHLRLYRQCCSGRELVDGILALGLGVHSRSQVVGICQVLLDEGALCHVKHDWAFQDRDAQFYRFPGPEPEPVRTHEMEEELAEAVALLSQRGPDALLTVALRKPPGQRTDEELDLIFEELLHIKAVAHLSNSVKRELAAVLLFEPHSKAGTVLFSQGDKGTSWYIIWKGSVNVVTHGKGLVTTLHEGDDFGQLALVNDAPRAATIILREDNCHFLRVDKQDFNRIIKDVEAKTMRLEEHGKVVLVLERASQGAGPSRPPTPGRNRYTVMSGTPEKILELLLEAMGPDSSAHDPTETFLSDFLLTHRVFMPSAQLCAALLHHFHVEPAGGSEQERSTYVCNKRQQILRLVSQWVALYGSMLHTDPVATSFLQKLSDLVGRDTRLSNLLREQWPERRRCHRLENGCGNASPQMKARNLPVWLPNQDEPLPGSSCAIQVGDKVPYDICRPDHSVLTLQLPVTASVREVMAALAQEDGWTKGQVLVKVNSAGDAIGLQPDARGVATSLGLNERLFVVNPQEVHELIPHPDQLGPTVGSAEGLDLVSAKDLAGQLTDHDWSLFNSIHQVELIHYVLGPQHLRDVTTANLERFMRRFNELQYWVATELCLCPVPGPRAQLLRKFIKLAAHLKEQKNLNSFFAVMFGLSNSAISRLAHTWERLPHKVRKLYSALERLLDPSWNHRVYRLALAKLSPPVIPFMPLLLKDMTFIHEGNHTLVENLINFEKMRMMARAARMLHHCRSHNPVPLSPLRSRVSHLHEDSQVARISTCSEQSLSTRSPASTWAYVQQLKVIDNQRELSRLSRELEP
Potency is the fitted concentration of half-maximal effect; tags give direction and shape of the fitted curve.

Row | Structure (SMILES) | Potency | activity change, negative = inhibition
1 | S=c1[nH]cnc2scc(-c3ccc(Br)cc3)c12 | inactive | –
2 | O=C(/C=C/c1ccc(O)c(O)c1)c1ccccc1O | inactive | –
3 | Cc1ccc(NC(=O)c2nnn(-c3ccc4c(c3)OCCO4)c2N)cc1 | inconclusive [inhibitor, full curve] | –
4 | CC1=NN(c2ccc(Br)cc2)C(=O)/C1=C/c1cccs1 | inconclusive [inhibitor, single point] | –
5 | CC(=O)Nc1ccc(S(=O)(=O)NCCc2csc(C)n2)cc1 | inactive | –
6 | Cc1ccc(-n2nnc3c(=O)n(Cc4cccc(C)c4)cnc32)cc1 | inconclusive [inhibitor, single point] | –
7 | Cc1ccc(CNC(=O)C2CCC(CNc3nc(=S)[nH]c4ccccc34)CC2)cc1 (stereo unspecified) | inconclusive [inhibitor, single point] | –
8 | CC(Nc1ccc(Br)cn1)c1cc(Cl)ccc1O (stereo unspecified) | inactive | –
9 | COc1cccc(/C=N/NC(=O)CNC(=O)COc2cccc(C)c2)c1O | inconclusive [inhibitor, single point] | –
10 | CC(C)(C)OC(=O)N1CCC(C(=O)NCC2CCCO2)CC1 (stereo unspecified) | inconclusive [inhibitor, partial curve] | –
11 | COc1ccc2cc(-c3[nH]ncc3CN3C[C@@H]4CCC[C@H]3C4)ccc2c1 | inactive | –
12 | COc1ccc(/C=C2\SC(N)=NC2=O)cc1Cl | inconclusive [inhibitor, partial curve] | –
13 | COc1cc2c(-c3ccc(O)cc3)nc3c(c(C)nn3-c3ccccc3)c2cc1OC | inconclusive [inhibitor, single point] | –
14 | O=C(COC(=O)C12CC3CC(CC(Br)(C3)C1)C2)Nc1cccnc1Cl | inconclusive [inhibitor, partial curve, poor fit] | –
15 | O=C(NCc1cccnc1)/C(=C\c1ccc(-c2ccc(Cl)c(Cl)c2)o1)S(=O)(=O)c1ccccc1 | inactive | –
16 | COc1cccc(/C=C2\SC(=S)N(CCCC(=O)N3CCCCC3CCO)C2=O)c1 (stereo unspecified) | inconclusive [inhibitor, partial curve] | –
17 | COc1ccc(S(=O)(=O)N2CCN(C(=O)c3cccs3)CC2)cc1 | inactive | –
18 | COc1ccc(/C=C/C(=O)N2CCN(c3ccccc3)CC2)cc1S(=O)(=O)N1CCOCC1 | inconclusive [inhibitor, single point] | –
19 | Cc1ccc(-n2nc(C(=O)N3CCOCC3)cc2-c2ccc(Cl)cc2)cc1 | inactive | –
20 | OC(c1ccc(F)cc1)c1nc(-c2csc3ccccc23)cs1 (stereo unspecified) | inconclusive [inhibitor, partial curve] | –
21 | CC(=O)COc1cccc2ccc(/C=C/c3ccc(Br)s3)nc12 | inconclusive [inhibitor, single point] | –
22 | Clc1ccc(N=c2ssnc2Cl)nc1 | inactive | –

Row | Structure (SMILES) | Potency | activity change, negative = inhibition
23 | O=C(O)c1cc(-c2ccco2)nc2ccc(Br)cc12 | inconclusive [inhibitor, partial curve] | –
24 | CC(C)=CCc1c(O)c(CC=C(C)C)c2c(c1O)C(=O)CC(c1ccc(O)cc1)O2 (stereo unspecified) | inconclusive [inhibitor, partial curve] | –
25 | COc1ccc(O)c(/C=N/NC(=O)c2ccc(N3CCCC3=O)cc2)c1 | inconclusive [inhibitor, partial curve] | –
26 | ON=C(c1ccccc1)c1ccc2c3c(cccc13)CC2 | inactive | –
27 | O=C(CS(=O)CC(=O)Nc1cnc2ccccc2c1)Nc1ccc(Cl)cc1 (stereo unspecified) | inconclusive [inhibitor, partial curve, poor fit] | –
28 | O=C(Nc1ccc2nc(-c3ccco3)c(-c3ccco3)nc2c1)N1CCCCCC1 | active: 39.8 µM | –
29 | Cc1nnc(-c2ccc(N3CCCCCC3)c([N+](=O)[O-])c2)o1 | inactive | –
30 | COc1c(C(=O)Nc2ccc(Cc3ccncc3)cc2)ccc2ccccc12 | inconclusive [inhibitor, partial curve] | –
31 | CCC(c1nnnn1CCc1ccccc1)N(Cc1ccco1)Cc1cc2c(C)ccc(C)c2[nH]c1=O (stereo unspecified) | inconclusive [inhibitor, full curve, poor fit] | –
32 | CC(C)(O)C#Cc1ccc(C(=O)N2CCN(c3ccc(F)cc3)CC2)cc1 | inconclusive [inhibitor, partial curve] | –
33 | COc1cc(/C=C2\SC(=Nc3ccc(Cl)c(C(=O)O)c3)NC2=O)c(Br)c(Br)c1O | inconclusive [inhibitor, partial curve] | –
34 | Cc1cccc(C)c1Nc1nnc(SCC(=O)Nc2sccc2C#N)s1 | inconclusive [inhibitor, full curve, poor fit] | –
35 | Nc1nc(NCc2ccc(Cl)cc2)nc(NCCO)c1[N+](=O)[O-] | inconclusive [inhibitor, single point] | –
36 | O=C1N=c2ccccc2=C1c1sc(=O)[nH]c1O | inconclusive [inhibitor, full curve, poor fit] | –
37 | CC(=O)NC(c1cc(Cl)c2cccnc2c1O)C(C)C (stereo unspecified) | inconclusive [inhibitor, single point] | –
38 | Cc1ccc(-n2c(Cl)c(Cl)nc(Cl)c2=O)cc1 | inconclusive [inhibitor, single point] | –
39 | CCOC(=O)c1sc(NC(=O)c2cccc(S(=O)(=O)N3CCN(C)CC3)c2)cc1C | inactive | –
40 | CCN(CC(=O)NCc1ccc(F)cc1)C(=O)COc1ccc2ccccc2c1 | inconclusive [inhibitor, full curve, poor fit] | –
41 | COc1ccc(OCc2cc(C(=O)NC(C)Cc3ccccn3)no2)c(Cl)c1 (stereo unspecified) | – | inconclusive: -8.3% [inhibitor]
42 | CC(C)CCN1C(=O)c2ccc(C(=O)Nc3ccc(O)cc3C(=O)O)cc2C1=O | inconclusive [inhibitor, partial curve] | –
43 | Cc1ccc(OCCC(=O)OCC(=O)Nc2ccc(C)c(S(=O)(=O)N3CCOCC3)c2)cc1 | inconclusive [inhibitor, partial curve] | –
44 | CC(=O)c1ccc(N2CCN(S(=O)(=O)c3cc4c(cc3C)NC(=O)CO4)CC2)cc1 | inconclusive [inhibitor, full curve, poor fit] | –

Row | Structure (SMILES) | Potency | activity change, negative = inhibition
45 | O=C(CSc1nc2c(cnn2-c2cccc(Cl)c2)c(=O)[nH]1)NCCC1=CCCCC1 | inconclusive [inhibitor, partial curve] | –
46 | Cc1cc(C)cc(NC(=O)c2sc3nc(C)cc(C)c3c2N)c1 | inactive | –
47 | O=C(CCc1ccccc1)c1c(O)cc(O)cc1O | inconclusive [inhibitor, partial curve, poor fit] | –
48 | COc1cccc(Nc2nc(Nc3ccc(Cl)c(C(=O)O)c3)nc(C)c2[N+](=O)[O-])c1 | inconclusive [inhibitor, partial curve, poor fit] | –
49 | COc1cc(OC)c2c(-c3cccc(-c4cccc(N)c4)c3)cc(=O)oc2c1 | inconclusive [inhibitor, single point] | –
50 | COc1ccc(OCCC(=O)OCC(=O)Nc2cccc(Br)c2)cc1 | inconclusive [inhibitor, partial curve, poor fit] | –
51 | Cc1nc2c(C(=O)NCCC(C)C)c[nH]n2c(=O)c1Cl | inconclusive [inhibitor, partial curve, poor fit] | –
52 | COc1cc(N=Nc2ccc(C)cc2S(N)(=O)=O)c(C)cc1N | inactive | –
53 | CC1(Cc2ccc3ccccc3n2)C(=O)Nc2ccc(OC(F)(F)F)cc21 (stereo unspecified) | inconclusive [inhibitor, full curve, poor fit] | –
54 | CC[C@H](CO)Nc1nc(Nc2cccc(Cl)c2)c2ncn(C(C)C)c2n1 | inconclusive [inhibitor, full curve] | –
55 | Cc1cccc(Cn2c(=O)oc3ccc(C)cc32)c1 | inactive | –
56 | CCOC(=O)c1nn(-c2ccc3ccccc3c2)cc1O | inconclusive [inhibitor, partial curve, poor fit] | –
57 | O=Nc1c(-c2ccccc2)n(O)[n+]([O-])c1-c1ccccc1 | inactive | –
58 | CC(C)(C)c1ccc2c(c1)OC(C(=O)N/N=C\c1ccc[nH]1)CO2 (stereo unspecified) | inconclusive [inhibitor, full curve, poor fit] | –
59 | CC(O)c1nc2ccccc2n1CCCOc1ccccc1 (stereo unspecified) | inconclusive [inhibitor, partial curve] | –
60 | CCOC(=O)c1ccc(NC(=O)c2nccnc2C(=O)O)cc1 | inconclusive [inhibitor, full curve] | –
61 | CC(C)(C)S(=O)N1Cc2cc(C(=O)NCCCN3CCOCC3)nc(-c3cccc(-c4cc5ccccc5o4)c3)c2[C@H]1CCO (stereo partly specified) | inconclusive [inhibitor, single point] | –
62 | CCCC(=O)NC(c1ccccc1Cl)c1ccc2cccnc2c1O (stereo unspecified) | inconclusive [inhibitor, partial curve] | –
63 | NC(=O)COC(=O)/C=C/c1ccc2ccccc2n1 | inconclusive [inhibitor, partial curve] | –
64 | CC(C)(C)c1ccc(OCC(=O)Nc2ccc3c4c(cccc24)C(=O)NC3=O)cc1 | inconclusive [inhibitor, single point] | –
65 | O=C(NCc1ccc(F)cc1)c1ccc(S(=O)(=O)Nc2cccc(C(F)(F)F)c2)cc1 | inconclusive [inhibitor, single point] | –
66 | C[C@H](CO)N1C[C@H](C)[C@@H](CN(C)C(=O)Nc2ccccc2)Oc2ccc(NS(=O)(=O)c3cn(C)cn3)cc2C1=O | inconclusive [inhibitor, full curve, poor fit] | –
